Measured values: PubChem BioAssay AID504937 (National Center for Advancing Translational Sciences (NCATS), 2011)
In all, about 340,000 compounds went through this assay and about 20 (0.006%) were called active. Inconclusive means that the source gave no clear call. Such entries were picked first, then a sample of the others. The call rests on the fitted dose curve; in most records, active means well fitted inhibition curve with a large enough effect; inconclusive means small, poorly fitted or top-dose-only effect; inactive means no such curve, though single readings can be large or run the other way. Potencies of inconclusive entries are doubtful fits and often do not repeat.
Potency means the concentration at half of the fitted maximal effect; tags describe the fitted curve by direction and shape.

The compounds below were run against Sphingomyelin phosphodiesterase (Homo sapiens) (UniProt P17405) (assay: Inhibitors of Secretory Acid Sphingomyelinase (S-ASM): qHTS). Conditions: placental ASM, HMU-PC fluorogenic substrate (series up to 57.5 µM), 60 min.
Sequence of UniProt P17405 (P17405 whole entry, looked up): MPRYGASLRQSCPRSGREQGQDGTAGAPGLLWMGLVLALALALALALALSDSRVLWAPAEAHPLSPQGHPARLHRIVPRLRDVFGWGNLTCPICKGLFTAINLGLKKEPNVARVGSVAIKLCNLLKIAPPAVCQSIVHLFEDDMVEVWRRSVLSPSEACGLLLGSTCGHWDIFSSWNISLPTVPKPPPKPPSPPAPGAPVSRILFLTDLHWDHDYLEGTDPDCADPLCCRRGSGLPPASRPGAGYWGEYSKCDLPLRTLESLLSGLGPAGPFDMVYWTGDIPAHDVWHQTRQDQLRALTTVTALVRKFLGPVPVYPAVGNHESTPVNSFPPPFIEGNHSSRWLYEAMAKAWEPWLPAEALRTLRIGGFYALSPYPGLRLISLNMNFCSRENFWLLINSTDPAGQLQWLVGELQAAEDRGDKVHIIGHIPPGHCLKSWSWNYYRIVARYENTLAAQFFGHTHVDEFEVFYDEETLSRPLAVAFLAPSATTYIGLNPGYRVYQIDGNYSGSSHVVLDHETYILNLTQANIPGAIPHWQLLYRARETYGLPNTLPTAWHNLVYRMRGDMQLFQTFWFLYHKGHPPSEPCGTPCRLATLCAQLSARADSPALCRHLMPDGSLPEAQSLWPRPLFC
Outline: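 Human placenta-derived ASM preincubated with compound 10 min at room temperature, then reacted with 9 uM (final) fluorogenic HMU-PC substrate for 60 min at 37 C. Stop solution raises pH to 10; fluorescence read at Ex 386/Em 447 nm.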
With `CCOc1ccc(/C=C2\SC(=S)N(Nc3ccccc3)C2=O)cc1OC` the Potency was inconclusive: 178 µM [inhibitor, partial curve, poor fit]. With `CCS(=O)(=O)C1=NN2C(=N)/C(=C\c3ccc(OC(=O)c4ccco4)c(OC)c3)C(=O)N=C2S1` the Potency was inconclusive: 7.08 µM [inhibitor, partial curve, poor fit]. For `COc1ccc(/C=N/NC(N)=S)cc1OC(=O)c1cccc2ccccc12`, the Potency was inconclusive: 282 µM [inhibitor, partial curve, poor fit]. For `c1ccc(CSc2ccc(-c3cccs3)nn2)cc1`, the Potency was “inactive”. With `Cc1ccc(CN2CC[C@H]3C=CCc4cccc(c43)C2)cc1` the Potency was “inactive”. For `O=C(NC1(Cc2ccccc2)CCN(Cc2ccc(-c3ccccc3)cc2)C1=O)c1ccccc1` (stereo unspecified), the Potency was inconclusive: 31.6 µM [inhibitor, partial curve, poor fit]. For `O=C(Nc1ccc(Br)cc1)c1cccc(S(=O)(=O)Nc2cnc3ccccc3c2)c1`, the Potency was inconclusive: 89.1 µM [inhibitor, partial curve, poor fit]. `CC(C)=CCC12Oc3cc(O)ccc3C1(O)Oc1cc(O)c([C@H]3C=C(C)CC(c4ccc(O)cc4O)[C@H]3C(=O)c3ccc(O)cc3O)c(O)c1C2=O` (stereo partly specified) was tested, and the Potency was inconclusive: 100 µM [inhibitor, single point]. In the case of `COc1ccc(/C=N/NC(=O)c2ccccc2O)cc1Cn1cc(Cl)cn1`, the Potency was inconclusive: 100 µM [inhibitor, partial curve, poor fit]. With `Cc1cc(OC(=O)c2ccco2)c(Sc2ccccc2[N+](=O)[O-])c(=O)o1` the Potency was “inactive”. `COc1cc(/C=N/Nc2nc(Nc3ccc(C)cc3)nc(-n3nc(C)cc3C)n2)cc(OC)c1OC` was tested, and the Potency was inconclusive: 501 µM [inhibitor, partial curve, poor fit]. With `CCOc1ccc(C2Sc3ccccc3NC3=C2C(=O)OC3)cc1` (stereo unspecified) the Potency was inconclusive: 100 µM [inhibitor, single point]. With `Cc1cccc(NC(=O)C2COc3ccccc3O2)c1` (stereo unspecified) the Potency was “inactive”. In the case of `CCOC(=O)c1c(NC(=O)COC(=O)CCOc2ccc(OCC)cc2)sc(C(=O)N(C)C)c1C`, the Potency was inconclusive: 708 µM [inhibitor, partial curve, poor fit]. With `Cc1c(NC(=S)NC(=O)c2cc3ccccc3o2)cccc1C(=O)O` the Potency was “inactive”. `O=C1C2C(C(=O)N1/N=C/c1cc(Br)cc([N+](=O)[O-])c1O)C1C=CC2C12CC2` (stereo unspecified) was tested, and the Potency was inconclusive: 282 µM [inhibitor, partial curve, poor fit]. `Cc1c(C(=O)N2c3ccccc3Sc3ccccc32)cccc1[N+](=O)[O-]` was tested, and the Potency was inconclusive: 282 µM [inhibitor, partial curve, poor fit]. In the case of `C=C(C)COc1ccc(-c2n[nH]c(C)c2-c2ccc(Br)cc2)c(O)c1`, the Potency was inconclusive: 70.8 µM [inhibitor, partial curve, poor fit]. In the case of `CC(=O)Nc1ccc(S(=O)(=O)Nc2ccc(Nc3ccccc3)cc2)cc1`, the Potency was inconclusive: 89.1 µM [inhibitor, partial curve, poor fit]. In the case of `CCCCCCCCCCOC(=O)Cn1c(COc2ccccc2OC)[n+](C)c2ccccc21`, the Potency was inconclusive: 79.4 µM [inhibitor, single point]. With `CCCCOC(=O)c1c(C)oc2ccc(NS(=O)(=O)c3ccc4c5c(cccc35)C(=O)N4)cc12` the Potency was inconclusive: 126 µM [inhibitor, partial curve, poor fit]. With `Cc1[nH]c2ccccc2c1/C=C/c1cc[n+](C)cc1` the Potency was inconclusive: 100 µM [inhibitor, single point]. With `Cc1cc(=O)oc2ccc(OCc3ccccc3)cc12` the Potency was “inactive”. With `CCCCCCCCCCS(=O)(=O)N/N=C/c1ccccc1OC` the Potency was inconclusive: 79.4 µM [inhibitor, single point]. In the case of `Cc1ccc(NC(=O)c2cccc3c2-c2ccccc2C3=O)cc1C`, the Potency was inconclusive: 79.4 µM [inhibitor, single point]. `CS(=O)(=O)N1CC(C(=O)NC2CCCC2)Oc2ccc(Cl)cc21` (stereo unspecified) was tested, and the Potency was “inactive”. In the case of `O=Nc1c(-c2c(O)[nH]c3cc(Br)ccc23)[nH]c2ccccc12`, the Potency was inconclusive: 141 µM [inhibitor, partial curve, poor fit]. `O/N=C/c1cc(Br)ccc1OCc1ccc(F)cc1` was tested, and the Potency was inconclusive: 200 µM [inhibitor, partial curve, poor fit]. With `O=C(CSCc1ccc(Br)cc1)Nc1ccc(S(=O)(=O)N2CCOCC2)cc1` the Potency was inconclusive: 355 µM [inhibitor, partial curve, poor fit]. In the case of `Nc1ccccc1SSc1ccccc1N`, the Potency was “inactive”. For `Cc1ccc(C)c(S(=O)(=O)N2CCN(C(=O)c3cncc(Br)c3)CC2)c1`, the Potency was “inactive”. With `CC1=CC2=NC(=O)/C(=C\c3cccn3CCOc3ccccc3C)C(=N)N2O1` the Potency was “inactive”. `CC(C)CCn1c(Oc2ccccc2Cl)nc2c1c(=O)n(C)c(=O)n2C` was tested, and the Potency was inconclusive: 79.4 µM [inhibitor, single point]. For `O=C1S/C(=C\c2ccc(N3CCOCC3)o2)C(=O)N1c1ccccc1`, the Potency was “inactive”. For `CCOc1ccc(/C(O)=C/C(=O)C(=O)Nc2ccc(S(=O)(=O)NC(C)=O)cc2)cc1`, the Potency was inconclusive: 25.1 µM [inhibitor, partial curve, poor fit]. `O=C(c1cc(-c2ccc(Cl)cc2)n(-c2ccc(Cl)cc2)n1)N1CCOCC1` was tested, and the Potency was inconclusive: 70.8 µM [inhibitor, partial curve]. With `CC(=NNC(=S)N1CCCCCC1)c1cccc2cccnc12` the Potency was “inactive”. `COc1cccc(Cn2cc(/C=N/NC(=O)c3cc(O)cc(O)c3)c3ccccc32)c1` was tested, and the Potency was inconclusive: 126 µM [inhibitor, partial curve, poor fit]. In the case of `Cc1ccc(S(=O)(=O)N[C@@H](CC(C)C)C(=O)N2CCC(C(=O)N[C@@H](Cc3ccccc3)C(=O)O)CC2)cc1`, the Potency was “inactive”. `OC(CN1CCN(c2ccccn2)CC1)Cn1c2ccc(Cl)cc2c2cc(Cl)ccc21` (stereo unspecified) was tested, and the Potency was inconclusive: 63.1 µM [inhibitor, partial curve, poor fit]. With `COC(=O)CN1C(=S)N(c2ccc(Cl)cc2)C(=O)C1CC(=O)Nc1ccc(Cl)cc1` (stereo unspecified) the Potency was inconclusive: 100 µM [inhibitor, partial curve, poor fit]. In the case of `Cc1nc([N+](=O)[O-])c(Br)n1CC(=O)c1ccc2ccccc2c1`, the Potency was inconclusive: 100 µM [inhibitor, partial curve, poor fit]. In the case of `C[C@@]12C(=O)OC(=O)[C@]1(C)C1CCC2O1`, the Potency was “inactive”. `Cc1ccc(S(=O)(=O)N(C)C)cc1NC(=O)COC(=O)c1sc2cc(Cl)ccc2c1Cl` was tested, and the Potency was inconclusive: 562 µM [inhibitor, partial curve, poor fit]. With `COc1ccc(C(=O)OCC(=O)NC2CC2)cc1S(=O)(=O)Nc1ccc(C)cc1` the Potency was “inactive”. `O=C(Nc1cccc(Br)c1)c1ccc2nc(N3C(=O)CCC3=O)sc2c1` was tested, and the Potency was “inactive”. In the case of `COc1ccc(NC(=O)c2cc3c(=O)n(C)c4ccccc4c3n2C)cc1OC`, the Potency was inconclusive: 100 µM [inhibitor, partial curve, poor fit]. `Cc1ccc(-n2ncc3ccccc3c2=O)cc1Cl` was tested, and the Potency was “inactive”. For `Cc1cccc(N=C2NC(=O)/C(=C3/C(=O)N(C)c4ccccc43)S2)c1C`, the Potency was inconclusive: 398 µM [inhibitor, partial curve, poor fit]. With `O=[N+]([O-])c1cccnc1N1CCC(c2cc(-c3ccc(Cl)cc3)n[nH]2)CC1` the Potency was inconclusive: 112 µM [inhibitor, partial curve, poor fit]. For `Cc1cccc(-n2nc(C(=O)c3ccco3)cc(-c3nc4ccccc4[nH]3)c2=N)c1`, the Potency was inconclusive: 224 µM [inhibitor, partial curve, poor fit]. With `CCOC(=O)C1=C(c2ccccc2)NC(=S)NC1c1ccc(C)c([N+](=O)[O-])c1` (stereo unspecified) the Potency was “inactive”. `COc1ccc(C2c3c(-c4ccccc4O)n[nH]c3C(=O)N2CCc2ccc(OC)c(OC)c2)cc1` (stereo unspecified) was tested, and the Potency was inconclusive: 89.1 µM [inhibitor, partial curve, poor fit]. `COc1cc(/C=N/NC(=O)c2cc(-c3cccc(Br)c3)nc3ccccc23)cc(OC)c1O` was tested, and the Potency was inconclusive: 282 µM [inhibitor, partial curve, poor fit]. `O=C(C[n+]1ccc(-c2cc(C(=O)Nc3cccc(C(F)(F)F)c3)c3ccccc3n2)cc1)c1cccc([N+](=O)[O-])c1` was tested, and the Potency was inconclusive: 70.8 µM [inhibitor, single point]. With `O=C(CCN1C(=O)/C(=C\C=C\c2ccccc2)SC1=S)Nc1ccccc1C(=O)O` the Potency was inconclusive: 3550 µM [inhibitor, partial curve, poor fit]. For `C=CCC[C@H](Cc1ccc(F)cc1)C(=O)OC[C@H](Cc1c[nH]c2ccccc12)NC(=O)[C@@H](CC=C)CC(=O)N[C@H](CO)Cc1ccccc1`, the Potency was inconclusive: 251 µM [inhibitor, partial curve, poor fit]. For `CCOC(=O)N1CCN(Cc2nc3c(c(=O)n(C)c(=O)n3C)n2Cc2cccc3ccccc23)CC1`, the Potency was inconclusive: 39.8 µM [inhibitor, partial curve]. `O=C(c1cc(-c2ccc(Cl)cc2)n(-c2ccc(Cl)c(Cl)c2)n1)N1CCOCC1` was tested, and the Potency was inconclusive: 89.1 µM [inhibitor, single point]. In the case of `Cc1c(C#N)c(O)[nH]c(=O)c1N=Nc1ccc(S(N)(=O)=O)cc1`, the Potency was inconclusive: 100 µM [inhibitor, partial curve, poor fit]. `CC1CCC(NC(=O)C(=O)Nc2ccc3c(c2)OCO3)CC1` (stereo unspecified) was tested, and the Potency was “inactive”.
